Laboratory results from the supplement of paper PMC11417369.
± gives the standard deviation of the averaged measurements. The list shows a part of the results.

Tested on: PfAP2-EXP AP2 domain (GST-tagged)
Test: gcPBM binding intensity (ln(normalized median fluorescence intensity)); higher = stronger DNA binding
How it was run: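 After 1 h on an Agilent 4 × 180k array of primer-extended double-stranded 36-bp intergenic genomic probes and negative controls, bound GST-tagged P. falciparum DNA-binding domains were detected with Alexa488 anti-GST antibody and scanned at 488 nm. The domains had been expressed in E. coli, and binding took place in 1× PBS with 1% milk, 0.2 mg/ml BSA, 0.5% salmon testes DNA and 0.03% Triton X-100. Binding intensity is the highest Masliner-normalised natural-log median intensity across replicate spots of either probe orientation.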

| Sequence | gcPBM binding intensity (ln) |
| --- | --- |
| AAAAAAAATATATAAACACACATATTTATATACTCA [CACACA_site4984] | 8.11 ± 0.33 |
| ACTATAAATATATAAATATATATATATATATATATA [GTGCAC_negctrl_site65] | 10.1 ± 0.28 |
| CTAAATATATAAAAAAGTACAAAATAAATAATAATT [XGTACX_site2442] | 8.8 ± 0.53 |
| TATTTCTGATTATTTTGTACACATTATATATAATGC [XGTACX_site6990] | 8.7 ± 0.37 |
| TATATATTATGACCACCACACACCTATACACATAAC [CACACA_site8773] | 8.99 ± 0.44 |
| AATATAAACAGACACACACACATATAGATTTATATT [CACACA_site7382] | 8.79 ± 0.4 |
| TTTTAATGAAAACACACACACACATATATATATATA [CACACA_site5295] | 10.3 ± 0.11 |
| GAAAATAGAAAAAGCACACATATATTTTGGAATGTA [CACACA_site551] | 8.55 ± 0.55 |
| GGATAGATAATAGGGGGTACAAATATACATACATAT [XGTACX_site5089] | 10 ± 0.38 |
| AAATGAATTATATAATATATATAAATAAATAAATAA [CACACA_negctrl_site359] | 8.46 ± 0.18 |
| TATTATATAACAAAAAGTACTTATAAGAAATATATA [XGTACX_site5467] | 8.8 ± 0.4 |
| TAATAAGTACCTTTTGCATGTGGCACGCTTTTTTTT [TGCATGCA_site573] | 8.9 ± 0.26 |
| ATATTTCATCTAGCTACACACATATAATAAATTATT [CACACA_site4094] | 8.83 ± 0.42 |
| AATGGAAAATTATTAACACACACATATAAATATATA [CACACA_site7899] | 8.5 ± 0.48 |
| TGCCAATTTTTAAAAACATGCATTATATAGAATAAA [TGCATGCA_site872] | 8.6 ± 0.34 |
| TTTTCAATATATAGAGCATGCGCATCCACAAATATG [TGCATGCA_site380] | 8.78 ± 0.35 |
| TACAACAATTTTTGCACACACCAAAACATAAAATAA [CACACA_site4964] | 8.61 ± 0.41 |
| ATTAAAAGGGGGTTTACATGTGTGTGTGTAATATGG [TGCATGCA_negctrl_site293] | 9.48 ± 0.65 |
| TTATACATTTGTAAATAAATAGAACTGTATTTTTTT [TGCATGCA_negctrl_site397] | 8.04 ± 0.43 |
| TATATACCGATATATACACACAAATACATAAGCTTC [CACACA_site6760] | 8.81 ± 0.4 |
| AATAATCATTTTCATAGTACGTATGATTAGAAAAAA [XGTACX_site2589] | 8.51 ± 0.36 |
| CAAAATATTTTTATAACACACATATTTATAACGTGC [CACACA_site6659] | 8.52 ± 0.22 |

| Sequence | gcPBM binding intensity (ln) |
| --- | --- |
| TTTTGATTGTTATTCGTATATTATTTTATGATTATA [CACACA_negctrl_site1593] | 8.61 ± 0.45 |
| AAGAAAAATATTCGTGTGCACAGAAGTATATGTGTG [GTGCAC_site9814] | 9.04 ± 0.28 |
| TATTGTAAGAAAGGCACACAGATAAAATTATTATAT [CACACA_site2921] | 8.73 ± 0.46 |
| ATAATTATATGGCTAGCACACAATAAATAATTATAT [CACACA_site3815] | 8.6 ± 0.46 |
| ATATAAGTGTATCTAACACACAAATATATAAAAATG [CACACA_site1956] | 8.63 ± 0.33 |
| ATCATCTTTATTCAAGTGCACTGAAAATTTTTTATA [GTGCAC_site9801] | 9.155 ± 0.021 |
| ACAAGTTAAAATATTACACACATATAAATATTTATA [CACACA_site7467] | 8.33 ± 0.38 |
| AGTAATAGTTTGTGCACACTCAAGTATATCATAGAT [CACACA_site6082] | 8.93 ± 0.085 |
| ATTTTTGTAAATACATGTACATATATATGCATATCC [XGTACX_site6353] | 8.96 ± 0.35 |
| TTTCGCTTTATTTATGCATGCAAATAAGTTGATATT [TGCATGCA_site724] | 10 ± 0.38 |
| TACATATATACATACACACACATATAACCAATGTAG [CACACA_site2192] | 8.78 ± 0.34 |
| AAATTAATGAAATATACACACATATATAAATATATA [CACACA_site4378] | 8.22 ± 0.33 |
| AAATTAAAGATAAAAGTGCAAAATTATAAATTTATT | 8.63 ± 0.26 |
| AAATTTTTTAATTTTTCTCATTTAATTTAAAAATTA [GTGCAC_negctrl_site155] | 8.3 ± 0.44 |
| TATATATAACATTGTACACACAAAGAAATAATATTA [CACACA_site3035] | 8.69 ± 0.39 |
| ATAAGCATCTGGATATGTACTTATTCCTTTAAAGAT [XGTACX_site6225] | 8.54 ± 0.38 |
| AAAAGTATATATTCAGTGCATAGTCTTTAAATATAA [GTGCAC_site9522] | 8.47 ± 0.2 |
| TATTAAAAATATTATGTACACACATTTTAGATATTT [CACACA_site8549] | 8.3 ± 0.13 |
| AACAAGTTGCATGGTGCACACATGTATTTATATCTA [CACACA_site5414] | 9.16 ± 0.2 |
| ATAAAAAAGCAACATCATATGTTTTTATAGAGTATT [CACACA_negctrl_site745] | 8.32 ± 0.4 |
| ATATAAATAAAAAAAAAAAAAAAAAAAAAAAAAAAA [CACACA_negctrl_site972] | 8.01 ± 0.43 |
| TATGCTACATTATATGTACACACATATACATATATA [CACACA_site8199] | 8.55 ± 0.26 |

| Sequence | gcPBM binding intensity (ln) |
| --- | --- |
| ATTTATACGTAATATGCATAAATATAAATATATATA [XGTACX_negctrl_site133] | 8.57 ± 0.31 |
| TTTCTTTCTTTCTTTTTTTAAATATTTTTTAAAAAT [TGCATGCA_negctrl_site206] | 8.71 ± 0.49 |
| TTAAAATTTTAAAAATTTTAATTTTACAAAAAAAAT [TGCATGCA_negctrl_site227] | 8.06 ± 0.33 |
| AATAGTGTATAAATTTGTACATATAATTAAAAGGAA [XGTACX_site1143] | 8.84 ± 0.35 |
| AACTTGTGTGGATATTGTACTAACAATATGTATGAT [XGTACX_site6302] | 8.86 ± 0.42 |
| TTATTCGAACAAAGGAAAAAATATATTCAAAGGAAA [TGCATGCA_negctrl_site215] | 8.64 ± 0.75 |
| ATTCATAAAAAGAGGTGTACATTAATATAATATATA [XGTACX_site8283] | 8.62 ± 0.35 |
| AATAACTTTTTGAGATGTACATTTTTAATTCGTAGA [XGTACX_site8455] | 8.35 ± 0.4 |
| TTTTTAACTAACATATCAATTCCATACGTCGTCAAA [CACACA_negctrl_site560] | 8.46 ± 0.52 |
| GGATTTATTTTATATACACACATACCTATATTTATA [CACACA_site7084] | 8.48 ± 0.16 |
| ACTTTAATAATTCACTTATTTTCTTATTATATTATT [CACACA_negctrl_site556] | 8.86 ± 0.28 |
| TTTAAAAATTTGATCAAACACACGTTGCATAAATTA [CACACA_site3945] | 8.87 ± 0.47 |
| ATAAATTGTAAAATGTGTACGCAGATATTGCGTATT [XGTACX_site332] | 8.55 ± 0.2 |
| ATAATATAAACATACACACACACATATATATATATA [CACACA_site5591] | 10 ± 0.41 |
| AAAACAAAAATATAAACACACATACATTGGTTTTCT [CACACA_site5405] | 8.34 ± 0.33 |
| AGGATATGCAGACACACACACATATAGATTTATATA [CACACA_site7100] | 8.41 ± 0.48 |
| TCTATATAATACCAATGTACATAGTTTTAAGCATAA [XGTACX_site1889] | 8.63 ± 0.47 |
| TTTTGTCTTCAAATCAAATGTATATAAAAAAAATAC [CACACA_negctrl_site1717] | 8.47 ± 0.4 |
| CTTTAATATTTTATTTCACACACATAAATGCCCCAA [CACACA_site8569] | 8.79 ± 0.47 |
| AACAAGAAATAATCACGTACACATTATAATAACTAA [XGTACX_site8184] | 8.57 ± 0.54 |
| AAAATTAAAATAGTAATACACACTTCATAGGAAATG [CACACA_site1762] | 8.36 ± 0.4 |
| AAAAAAAAAAAAAAAAAAAAAAAAAAAAGTTAAAAA [TGCATGCA_negctrl_site74] | 9.105 ± 0.078 |

| Sequence | gcPBM binding intensity (ln) |
| --- | --- |
| TGATATTATTATAAGGTGCTTAAAAATAAAGATAAT [GTGCAC_site9539] | 8.58 ± 0.18 |
| AAAAAAAAAGATCACACACACATAAATATAAACAAA [CACACA_site5285] | 8.48 ± 0.26 |
| TAAAATATTGTTATTACATGCAACCTTATGAAAAAT [TGCATGCA_site706] | 8.94 ± 0.17 |
| ATATAAAATAATAAGGGTACAGGTCTCTGCGATGTT [XGTACX_site786] | 8.54 ± 0.46 |
| ACTCGCATATTTAAATGTACTTAATTAGAAGAAAAA [XGTACX_site3304] | 8.66 ± 0.22 |
| AGAATTTTAGATTTAGCACACATTTTTTTTTTTTTT [CACACA_site4081] | 8.3 ± 0.33 |
| TTTTTTTGCCATATTACACACACACCGGTAAACCCC [CACACA_site8475] | 9.46 ± 0.53 |
| TATAAATAAATAAACACACACAAATAAAATAAAAAA [CACACA_site7623] | 8.77 ± 0.4 |
| ACATATTAGGGTCATGAACACACAAAAAAAAAAAAA [CACACA_site8218] | 8.46 ± 0.53 |
| TTTATTTATTTATTCTTATTTTTTTTTTTTTTTACT [CACACA_negctrl_site257] | 8.35 ± 0.52 |
| AATTCAGCTTTACAACGTACACAATCATATGTCTAT [XGTACX_site8113] | 8.77 ± 0.4 |
| ATGAAGATTTAAAAATGTACATATGATCTATGTCCT [XGTACX_site8409] | 8.38 ± 0.36 |
| TAATACATAAATGATTGTACATAAGAATTGAAACAT [XGTACX_site4583] | 8.72 ± 0.34 |
| TCTAGGAAAAATTATAGTACACAAAAATATATATAT [XGTACX_site4136] | 9.37 ± 0.2 |
| TTATATGCACTTTTTGCACACGTATGAATAACAAAA [CACACA_site1811] | 8.93 ± 0.11 |
| ATATATACATATACTATATCTTTTATTTTTATTATT [GTGCAC_negctrl_site127] | 8.29 ± 0.15 |
| TATGACACTTTGAAGGGTACATGCAGAAAAAAAAAA [XGTACX_site569] | 9.17 ± 0.18 |
| TATATATATTAAAAACGTACAAAATAAGAATTAATT [XGTACX_site5979] | 8.94 ± 0.47 |
| GGATATATTTTATGTACACACACATATAAGGGATTA [CACACA_site4181] | 8.54 ± 0.33 |
| CATAAAAATGGATACACACACATAATATATATATAT [CACACA_site3619] | 9.81 ± 0.3 |
| TAATTTTTTTTTTATTGTACTTAATATTTTTAATTT [XGTACX_site5929] | 8.4 ± 0.34 |
